Results: PubChem BioAssay AID686979 (National Center for Advancing Translational Sciences (NCATS), 2013)
Values joined by “and” are separate entries in the source; they are usually repeats but may differ in a detail not shown here. Equal values may be shown once. Among all 420,000 compounds or so, about 50,000 (12%) were called active. This list was built around the results that the source calls inconclusive (neither active nor inactive); the mix of calls is not that of the screen. Calls follow the shape of the dose curve; as a rule, active = well fitted inhibition curve with a large enough effect; inconclusive = small, poorly fitted or top-dose-only effect; inactive = flat fitted curve, though single readings scatter. Potencies beside an inconclusive call are fits to weak or partial responses and may not hold up.

test: qHTS for Inhibitors of human tyrosyl-DNA phosphodiesterase 1 (TDP1): qHTS in cells in presence of CPT; settings: chicken DT40 Tdp1-/-;hTDP1 cells + 20 nM CPT, ATP luminescence, 48 h; activity change, negative = growth inhibition: at 46.2 µM (top of the series) unless noted; also: nearly all actives have a fitted effect of over 55% in size
Outline: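 Cell growth measured by CellTiter-Glo luminescence after a minimum 48 h, 37 C compound exposure with 20 nM CPT in Tdp1-knockout DT40 cells stably expressing hTDP1, seeded 400/well; qHTS titration format.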
% is scaled to controls: 0 for no effect and ±100 for the full control effect; potency is read from the fitted curve at half-maximal effect; tags tell the direction and shape of the fitted curve.

Question: With `O=C1CCCCCN1Sc1ccccc1` as the compound, how does the Potency read?
Answer: active: 5.8 µM

Question: Which Potency does the source give for `CC(C)NC1CCC(Nc2ccnc3cc(Cl)ccc23)CC1` (stereo unspecified) here?
Answer: active: 6.51 µM

Question: For `Cc1c(Cl)cccc1NC(=O)Cn1nc(C(F)(F)F)c2c1CCC2`, which “activity change, negative = growth inhibition” value is on record?
Answer: inactive: -25.5%

Question: With `O=C(/C=C/c1ccccc1)CCN1CCOCC1` as the compound, how does the Potency read?
Answer: active: 0.92 µM

Question: For `CCOC(=O)CSc1nc(N2CCOCC2)c2c(c1C#N)CC(C(C)C)OC2` (stereo unspecified), which “activity change, negative = growth inhibition” value is on record?
Answer: inactive: 4.05%

Question: With `O=[N+]([O-])c1ccc(N/N=C\c2ccccc2OCc2ccccc2)cc1` as the compound, how does the Potency read?
Answer: inconclusive: 13 µM [inhibitor, partial curve]

Question: Which “activity change, negative = growth inhibition” value does the source give for `CC1CCCN(C(=O)c2cccc(S(=O)(=O)Nc3cc(C(F)(F)F)ccc3Cl)c2)C1` (stereo unspecified) here?
Answer: inactive: 0.0893%

Question: Which Potency does the source give for `N=c1ccn2c(n1)O[C@H]1[C@@H](CO)[C@H](O)O[C@H]12` here?
Answer: active: 0.0366 µM

Question: With `CC(NC(=O)c1cc(F)c(F)c(F)c1F)c1ccc(-n2ccnc2)cc1` (stereo unspecified) as the compound, how does the Potency read?
Answer: active: 23.1 µM

Question: For `COc1cccc(-c2ccc3nnc(SCC(=O)N4CCCC4)n3n2)c1`, which Potency is on record?
Answer: inconclusive: 29.1 µM [inhibitor, single point]

Question: With `Cc1ccc(NC(=O)C2CCCN(S(=O)(=O)c3cccc4cccnc34)C2)c(Br)c1` (stereo unspecified) as the compound, how does the Potency read?
Answer: inconclusive: 23.1 µM [inhibitor, single point]

Question: For `O=C(CNC(=O)c1ccc(Br)o1)OCc1ccc(Br)cc1`, which “activity change, negative = growth inhibition” value is on record?
Answer: inactive: -5.77%

Question: For `O=[N+]([O-])c1ccc(N=Nc2c(O)[nH]c3ccc(F)cc23)cc1`, which Potency is on record?
Answer: inconclusive: 29.1 µM [inhibitor, single point]

Question: With `Cc1ccccc1NC(=O)CCC(=O)N/N=C/c1cc([N+](=O)[O-])ccc1O` as the compound, how does the Potency read?
Answer: inconclusive: 29.1 µM [inhibitor, single point]

Question: Which Potency does the source give for `CCOc1ccc(CNc2ccc3c(c2)nc(C)n3C)cc1` here?
Answer: inconclusive: 18.4 µM [inhibitor, single point]

Question: With `Cc1c2cnn(CC(=O)NCc3ccccn3)c(=O)c2c(C)n1Cc1ccc(Cl)cc1` as the compound, how does the Potency read?
Answer: inconclusive: 23.1 µM [inhibitor, single point]

Question: With `CCOC(=O)N1CCN(Cc2ccc3c(c2)CN(C(=O)c2cc(-c4ccccc4)no2)CCO3)CC1` as the compound, how does the Potency read?
Answer: inconclusive: 6.51 µM [inhibitor, single point]

Question: Which Potency does the source give for `O=C(Nc1ccc(N2CCCC2)cc1)c1cc(Br)ccc1Cl` here?
Answer: active: 3.66 µM

Question: Which Potency does the source give for `C/C=C/C=N/Nc1nc(-c2ccc([N+](=O)[O-])cc2)cs1` here?
Answer: inconclusive: 18.4 µM [inhibitor, single point]

Question: For `Cc1ccc(S(=O)(=O)N2CCC(C(=O)NNC(=O)c3ccccc3O)CC2)cc1C`, which Potency is on record?
Answer: inconclusive: 23.1 µM [inhibitor, single point]

Question: For `NC(N)=Nc1nc(-c2ccccc2)c2cc(Cl)ccc2n1`, which Potency is on record?
Answer: active: 16.4 µM

Question: For `CC(C)CN(C(=O)COC(=O)C12CC3CC(CC(C3)C1)C2)c1c(N)n(Cc2ccccc2)c(=O)[nH]c1=O`, which Potency is on record?
Answer: inconclusive: 20.6 µM [inhibitor, single point]

Question: With `C#CCOc1ccc(/C=C2/C(=O)N(c3ccc(S(N)(=O)=O)cc3)N=C2C)cc1OC` as the compound, how does the Potency read?
Answer: inconclusive: 23.1 µM [inhibitor, single point]

Question: For `Cc1ccc(-c2csc3ncnc(OCC(=O)NC(=O)NCc4ccco4)c23)cc1`, which activity change, negative = growth inhibition is on record?
Answer: inconclusive: -33.7% [inhibitor]

Question: For `CCN1CCOC(=O)C1CC(=O)Nc1cccc(OC)c1` (stereo unspecified), which Potency is on record?
Answer: active: 5.17 µM

Question: Which “activity change, negative = growth inhibition” value does the source give for `CC1CC(C)CN(C(=O)COC(=O)c2cc3ccccc3oc2=O)C1` (stereo unspecified) here?
Answer: inactive: 3.5%

Question: For `FC(F)(F)c1ccccc1NC(=S)NN=C1CCCCCC1`, which Potency is on record?
Answer: inconclusive: 4.61 µM [inhibitor, single point]

Question: For `COc1ccc(OC)c(NC(=O)Cn2nc(C)c3ccccc3c2=O)c1`, which “activity change, negative = growth inhibition” value is on record?
Answer: inactive: -4.78%

Question: Which “activity change, negative = growth inhibition” value does the source give for `O=C(Cc1n[nH]c(=O)c2ccccc12)OCC(=O)c1ccc(F)c(F)c1` here?
Answer: inactive: -2.21%

Question: With `Cn1cc(S(=O)(=O)N2CCCCCC2)cc1C(=O)NCc1ccc(Cl)cc1` as the compound, how does the Potency read?
Answer: inconclusive: 23.1 µM [inhibitor, partial curve, poor fit]

Question: For `CC(C)(C)N(Cc1ccccc1)C(=O)c1cc2ccccc2o1`, which Potency is on record?
Answer: inconclusive: 23.1 µM [inhibitor, single point]

Question: Which Potency does the source give for `COCCn1c(C)c(C)c2c(NCCc3ccccc3)ncnc21` here?
Answer: active: 23.1 µM

Question: Which Potency does the source give for `CCc1cccc(NS(=O)(=O)c2ccc3c(c2)oc(=O)n3C)c1` here?
Answer: inconclusive: 29.1 µM [inhibitor, single point]

Question: For `O=C(COC(=O)c1ccccc1NC(=O)c1ccccc1)c1ccc([N+](=O)[O-])cc1`, which Potency is on record?
Answer: active: 23.1 µM

Question: Which Potency does the source give for `C#CCn1c(/C=C/c2ccc(Cl)cc2)nc2ccccc21` here?
Answer: inconclusive: 23.1 µM [inhibitor, single point]

Question: Which Potency does the source give for `Cc1c(C(=O)NCc2ccccc2)oc2ccc(S(=O)(=O)N3CCCC3)cc12` here?
Answer: inconclusive: 18.4 µM [inhibitor, single point]

Question: For `O=C(NCc1nnc2c3ccccc3c(-c3ccccc3)nn12)c1ccc(Cl)cc1`, which Potency is on record?
Answer: inconclusive: 23.1 µM [inhibitor, single point]

Question: For `Brc1c(OCCOCCn2cncn2)ccc2ccccc12`, which Potency is on record?
Answer: inconclusive: 29.1 µM [inhibitor, single point]

Question: Which Potency does the source give for `CN(CC/C=C1/c2ccccc2CSc2ccccc21)CCCO` here?
Answer: inconclusive: 23.1 µM [inhibitor, single point]

Question: Which Potency does the source give for `O=C(NCCN1C(=O)S/C(=C\c2cccnc2)C1=O)c1ccc([N+](=O)[O-])s1` here?
Answer: inconclusive: 5.17 µM [inhibitor, full curve, poor fit]

Question: With `Cc1ccsc1C(=O)NNC(=O)Nc1ccc(Cl)c(Cl)c1` as the compound, how does the “activity change, negative = growth inhibition” value read?
Answer: inactive: -5.69%

Question: Which Potency does the source give for `COc1ccc([C@H]2CC(=O)C=C(c3cc(Cl)cc(Cl)c3)C2)cc1` here?
Answer: inconclusive: 29.1 µM [inhibitor, single point]

Question: Which “activity change, negative = growth inhibition” value does the source give for `Nc1ccc(CSc2ccccc2)cc1` here?
Answer: inactive: -16.1%

Question: With `COc1ccc(-c2nc(CS(=O)CC(=O)NC3CCCc4ccccc43)c(C)o2)cc1OC` (stereo unspecified) as the compound, how does the Potency read?
Answer: inconclusive: 29.1 µM [inhibitor, single point]

Question: With `Cn1c(C(=O)NCCCN2CCCC2=O)cc2c(=O)n(C)c3ccccc3c21` as the compound, how does the “activity change, negative = growth inhibition” value read?
Answer: inactive: -28.3%

Question: Which Potency does the source give for `CC(C)CC(=O)NCC(c1ccc2c(c1)OCO2)N1CCN(c2ccccc2F)CC1` (stereo unspecified) here?
Answer: inconclusive: 16.4 µM [inhibitor, single point]

Question: Which Potency does the source give for `O=C(NCCN1CCCC1)c1ccc2c(c1)N(Cc1cccc(Cl)c1)C(=O)c1ccccc1S2(=O)=O` here?
Answer: inconclusive: 23.1 µM [inhibitor, single point]

Question: With `Cc1ccccc1NC(=O)N1CCCC(c2nc(-c3ccc(F)cc3)no2)C1` (stereo unspecified) as the compound, how does the Potency read?
Answer: inconclusive: 32.6 µM [inhibitor, partial curve, poor fit]

Question: Which Potency does the source give for `Cc1occc1C(=O)N(C)Cc1nc(-c2ccccc2)no1` here?
Answer: inconclusive: 20.6 µM [inhibitor, partial curve]

Question: Which Potency does the source give for `CCN(c1ccc(OC)cc1)S(=O)(=O)c1nnc(NC(=O)COc2ccc(F)cc2)s1` here?
Answer: inconclusive: 6.51 µM [inhibitor, partial curve] and inconclusive: 25.9 µM [inhibitor, single point]

Question: Which activity change, negative = growth inhibition does the source give for `Cc1ccc(N2C(=O)Nc3ccccc3C2(O)C(=O)N2CCN(c3ccccn3)CC2)cc1C` (stereo unspecified) here?
Answer: inconclusive: 0.827% [inhibitor]

Question: Which Potency does the source give for `CC(C)(C)OC(=O)N1CCC(c2c(C(=O)NCC3CCN(C4CCCC4)C3)cnn2-c2ccccc2)CC1` (stereo unspecified) here?
Answer: inconclusive: 16.4 µM [inhibitor, single point]

Question: For `Cc1cccc(C)c1NC(=O)C1c2ccccc2OCC(=O)N1Cc1cccnc1` (stereo unspecified), which “activity change, negative = growth inhibition” value is on record?
Answer: inactive: -5%

Question: For `CCCOc1cccc(CN2CCCCC2c2cccnc2)c1` (stereo unspecified), which Potency is on record?
Answer: inconclusive: 29.1 µM [inhibitor, single point]

Question: With `Cc1ccc(Nc2nc(N)c([N+](=O)[O-])c(N3CCOCC3)n2)cc1C` as the compound, how does the Potency read?
Answer: active: 23.1 µM

Question: Which Potency does the source give for `COc1ccccc1/C=C/C(=O)OCC(=O)c1c[nH]c2ccccc12` here?
Answer: inconclusive: 18.4 µM [inhibitor, single point]

Question: Which Potency does the source give for `CCn1c2ccccc2c2cc(CN3CCN(S(=O)(=O)Cc4ccccc4)CC3)ccc21` here?
Answer: inconclusive: 23.1 µM [inhibitor, single point]

Question: For `CCOC(=O)C1CCC(=O)C1` (stereo unspecified), which “activity change, negative = growth inhibition” value is on record?
Answer: inactive: -2.02%

Question: For `COc1ccccc1[C@@H]1C(c2cccc(C)c2)=NN(c2ccccc2)[C@H]1C(=O)N1CCOC1=O`, which Potency is on record?
Answer: inconclusive: 29.1 µM [inhibitor, single point]

Question: For `O=C(NCCS(=O)(=O)N1CCN(c2ccccc2F)CC1)c1ccc(Br)cc1`, which “activity change, negative = growth inhibition” value is on record?
Answer: inactive: -25.1%

Question: For `CC(C)(C)C(=O)NC(NC(=S)Nc1sc2c(c1C#N)CCCC2)C(Cl)(Cl)Cl` (stereo unspecified), which Potency is on record?
Answer: active: 25.9 µM

Question: Which Potency does the source give for `CSc1ccccc1-c1cnc(NC(C)=O)cn1` here?
Answer: active: 2.59 µM

Question: With `COC(=O)c1ccc(N2C(=O)Nc3ccccc3N2O)cc1` as the compound, how does the “activity change, negative = growth inhibition” value read?
Answer: inactive: 2.34%

Question: For `C/C(=N\Nc1ncc(Br)cn1)c1cccc([N+](=O)[O-])c1`, which “activity change, negative = growth inhibition” value is on record?
Answer: inactive: -16.3%

Question: For `CCOC(=O)c1ccc(NC(=O)Nc2ccc3snnc3c2)cc1`, which Potency is on record?
Answer: inconclusive: 3.66 µM [inhibitor, partial curve, poor fit]

Question: Which Potency does the source give for `COc1cc(C=C2C(=O)c3ccccc3C2=O)cc(OC)c1OC` here?
Answer: inconclusive: 18.4 µM [inhibitor, single point]

Question: With `C=Cn1cc[n+](CC(=O)c2ccc(OC)cc2)c1` as the compound, how does the Potency read?
Answer: inconclusive: 18.4 µM [inhibitor, partial curve, poor fit]

Question: Which “activity change, negative = growth inhibition” value does the source give for `COc1ccc(C(=O)NCCc2nc3cc([N+](=O)[O-])ccc3n2C)cc1` here?
Answer: inactive: -16.4%

Question: For `CC1=C(C(=O)N(C)C)CC(CC(=O)NCC2CCCCC2)C(=O)N1Cc1ccccc1` (stereo unspecified), which “activity change, negative = growth inhibition” value is on record?
Answer: inactive: -12.8%

Question: With `CC(C)C1OC2(C)OC(=N)C1(C#N)C(C#N)(C#N)C2c1ccccc1` (stereo unspecified) as the compound, how does the Potency read?
Answer: inconclusive: 13 µM [inhibitor, partial curve, poor fit]

Question: With `CC[C@]12c3[nH]c4ccccc4c3CCN1C(=O)C(CC(=O)NC/C=C(\C)CCC=C(C)C)C[C@@H]2C(=O)N1CCN(C(=O)C2CC2)CC1` (stereo partly specified) as the compound, how does the Potency read?
Answer: active: 20.6 µM
